Measurements as given in paper PMC13034042.
Numbering of substitutions follows the chain as printed. Numbers in names are those of the source. No constants are given. Whether binding was seen depends on the method and setting. Some binding calls cover weakened binding; strength is not graded here. For some of these results: Where a sequence is shown, tags or fusion partners need not be part of it.

Experiments:
Test in all cases: two-hybrid; Y2H in reporter strain PJ69-4A; G4BD bait and G4AD prey from monocopy plasmids (ADH1 promoter); growth on SC-HLT (HIS3) and SC-ALT (ADE2) plates, 3 days at 30°C
[1] = biological target: T1, Rpl6a, Y2H bait (S. cerevisiae) (UniProt Q02326)
T1 sequence: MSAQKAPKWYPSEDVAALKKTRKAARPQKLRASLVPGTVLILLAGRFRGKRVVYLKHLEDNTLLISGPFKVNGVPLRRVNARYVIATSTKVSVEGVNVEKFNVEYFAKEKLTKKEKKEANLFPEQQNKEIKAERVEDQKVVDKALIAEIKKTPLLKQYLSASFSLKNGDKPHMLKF

[2] = biological target: T2, G4BD-Rpl10, Y2H bait (S. cerevisiae) (UniProt P41805)
T2 sequence: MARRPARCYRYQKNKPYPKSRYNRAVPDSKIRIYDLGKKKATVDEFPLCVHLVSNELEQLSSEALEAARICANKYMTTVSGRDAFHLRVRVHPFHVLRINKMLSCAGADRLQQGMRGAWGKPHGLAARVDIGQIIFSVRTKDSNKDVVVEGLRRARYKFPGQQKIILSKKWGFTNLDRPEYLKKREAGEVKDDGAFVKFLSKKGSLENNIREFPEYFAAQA

[3] = biological target: T3, Rpl10, Y2H bait whose G4BD is not N-terminal (S. cerevisiae) (UniProt P41805)
T3 sequence: T2 sequence

[4] = biological target: T4, Bcl1.323C, Y2H fusion (S. cerevisiae) (UniProt P53962)
T4 sequence: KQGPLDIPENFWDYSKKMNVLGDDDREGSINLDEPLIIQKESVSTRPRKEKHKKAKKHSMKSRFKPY

[5] = biological target: T5, Bcl1.323C R385A, Y2H fusion (S. cerevisiae) (UniProt P53962)
T5 sequence: T4 sequence with R63A

[6] = biological target: T6, Bcl1, full length, Y2H fusion (S. cerevisiae) (UniProt P53962)
T6 sequence: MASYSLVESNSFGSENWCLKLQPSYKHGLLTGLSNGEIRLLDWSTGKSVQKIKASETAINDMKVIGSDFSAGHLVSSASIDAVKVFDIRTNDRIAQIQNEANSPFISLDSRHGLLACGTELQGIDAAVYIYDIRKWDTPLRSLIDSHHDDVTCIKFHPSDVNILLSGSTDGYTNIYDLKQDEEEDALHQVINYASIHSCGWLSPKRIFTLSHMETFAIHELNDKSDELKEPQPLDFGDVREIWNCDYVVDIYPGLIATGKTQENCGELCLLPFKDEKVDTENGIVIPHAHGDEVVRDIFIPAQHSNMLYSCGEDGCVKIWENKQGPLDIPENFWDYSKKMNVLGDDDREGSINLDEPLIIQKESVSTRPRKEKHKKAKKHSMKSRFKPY

## Kap114.159C, Y2H prey (from UniProt P53067 159-1004) (domain or fragment)
[1]
  binding: binds

## Kap114.75C, Y2H prey (from UniProt P53067 75-1004) (domain or fragment)
[1]
  binding: binds

B1: Sqt1, Y2H prey (protein, UniProt P35184 1-431)
chain: MEPQEEFITTEEVEQEIVPTVEVEQDVPVDIEGENDDDDEMMNDDEEALEVDMSNNSLTYFDKHTDSVFAIGHHPNLPLVCTGGGDNLAHLWTSHSQPPKFAGTLTGYGESVISCSFTSEGGFLVTADMSGKVLVHMGQKGGAQWKLASQMQEVEEIVWLKTHPTIARTFAFGATDGSVWCYQINEQDGSLEQLMSGFVHQQDCSMGEFINTDKGENTLELVTCSLDSTIVAWNCFTGQQLFKITQAEIKGLEAPWISLSLAPETLTKGNSGVVACGSNNGLLAVINCNNGGAILHLSTVIELKPEQDELDASIESISWSSKFSLMAIGLVCGEILLYDTSAWRVRHKFVLEDSVTKLMFDNDDLFASCINGKVYQFNARTGQEKFVCVGHNMGVLDFILLHPVANTGTEQKRKVITAGDEGVSLVFEVPN
[2]
  binding: binds
[3]
  binding: binds

B2: Kap104, full length, Y2H prey (protein, UniProt P38217 1-918)
chain: MASTWKPAEDYVLQLATLLQNCMSPNPEIRNNAMEAMENFQLQPEFLNYLCYILIEGESDDVLKQHYSLQDLQNNRATAGMLLKNSMLGGNNLIKSNSHDLGYVKSNIIHGLYNSNNNLVSNVTGIVITTLFSTYYRQHRDDPTGLQMLYQLLELTSNGNEPSIKALSKIMEDSAQFFQLEWSGNTKPMEALLDSFFRFISNPNFSPVIRSESVKCINTVIPLQTQSFIVRLDKFLEIIFQLAQNDENDLVRAQICISFSFLLEFRPDKLVSHLDGIVQFMLHLITTVNEEKVAIEACEFLHAFATSPNIPEHILQPYVKDIVPILLSKMVYNEESIVLLEASNDDDAFLEDKDEDIKPIAPRIVKKKEAGNGEDADDNEDDDDDDDDEDGDVDTQWNLRKCSAATLDVMTNILPHQVMDIAFPFLREHLGSDRWFIREATILALGAMAEGGMKYFNDGLPALIPFLVEQLNDKWAPVRKMTCWTLSRFSPWILQDHTEFLIPVLEPIINTLMDKKKDVQEAAISSVAVFIENADSELVETLFYSQLLTSFDKCLKYYKKKNLIILYDAIGRFAEKCALDETAMQIILPPLIEKWALLSDSDKELWPLLECLSCVASSLGERFMPMAPEVYNRAFRILCHCVELEAKSHQDPTIVVPEKDFIITSLDLIDGLVQGLGAHSQDLLFPQGTKDLTILKIMLECLQDPVHEVRQSCFALLGDIVYFFNSELVIGNLEDFLKLIGTEIMHNDDSDGTPAVINAIWALGLISERIDLNTYIIDMSRIILDLFTTNTQIVDSSVMENLSVTIGKMGLTHPEVFSSGAFANDSNWNKWCLSVNALDDVEEKSSAYMGFLKIINLTSTEVTMSNDTIHKIVTGLSSNVEANVFAQEIYTFLMNHSAQISAINFTPDEISFLQQFTS
[4]
  binding: binds
[5]
  binding: no binding
[6]
  binding: binds weakly
